Residue numbers refer to the chain shown, from its start. Results are given in words; binding and its absence hold for the method and conditions named. Binding seen in cells or lysates may run through a third protein. Some results given as binding are weak or reduced against the parent protein; the word gives no strength. Where a sequence is shown, tags or fusion partners need not be part of it.
What was measured:
[1] = target: T1, FLAG-tagged murine p21^Δdegron (murine) (UniProt P39689); assay: co-IP; FLAG-tagged p21 precipitated with FLAG beads from lysates of transfected 293T cells harvested at 48 hr; blots for endogenous proteins
T1 sequence: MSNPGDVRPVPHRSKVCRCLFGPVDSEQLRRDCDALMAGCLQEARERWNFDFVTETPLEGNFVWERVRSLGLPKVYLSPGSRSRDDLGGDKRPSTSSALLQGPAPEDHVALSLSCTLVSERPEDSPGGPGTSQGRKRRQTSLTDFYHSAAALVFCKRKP

Amino acid sequences for entries named in this document (tags omitted).
UniProt Q16531: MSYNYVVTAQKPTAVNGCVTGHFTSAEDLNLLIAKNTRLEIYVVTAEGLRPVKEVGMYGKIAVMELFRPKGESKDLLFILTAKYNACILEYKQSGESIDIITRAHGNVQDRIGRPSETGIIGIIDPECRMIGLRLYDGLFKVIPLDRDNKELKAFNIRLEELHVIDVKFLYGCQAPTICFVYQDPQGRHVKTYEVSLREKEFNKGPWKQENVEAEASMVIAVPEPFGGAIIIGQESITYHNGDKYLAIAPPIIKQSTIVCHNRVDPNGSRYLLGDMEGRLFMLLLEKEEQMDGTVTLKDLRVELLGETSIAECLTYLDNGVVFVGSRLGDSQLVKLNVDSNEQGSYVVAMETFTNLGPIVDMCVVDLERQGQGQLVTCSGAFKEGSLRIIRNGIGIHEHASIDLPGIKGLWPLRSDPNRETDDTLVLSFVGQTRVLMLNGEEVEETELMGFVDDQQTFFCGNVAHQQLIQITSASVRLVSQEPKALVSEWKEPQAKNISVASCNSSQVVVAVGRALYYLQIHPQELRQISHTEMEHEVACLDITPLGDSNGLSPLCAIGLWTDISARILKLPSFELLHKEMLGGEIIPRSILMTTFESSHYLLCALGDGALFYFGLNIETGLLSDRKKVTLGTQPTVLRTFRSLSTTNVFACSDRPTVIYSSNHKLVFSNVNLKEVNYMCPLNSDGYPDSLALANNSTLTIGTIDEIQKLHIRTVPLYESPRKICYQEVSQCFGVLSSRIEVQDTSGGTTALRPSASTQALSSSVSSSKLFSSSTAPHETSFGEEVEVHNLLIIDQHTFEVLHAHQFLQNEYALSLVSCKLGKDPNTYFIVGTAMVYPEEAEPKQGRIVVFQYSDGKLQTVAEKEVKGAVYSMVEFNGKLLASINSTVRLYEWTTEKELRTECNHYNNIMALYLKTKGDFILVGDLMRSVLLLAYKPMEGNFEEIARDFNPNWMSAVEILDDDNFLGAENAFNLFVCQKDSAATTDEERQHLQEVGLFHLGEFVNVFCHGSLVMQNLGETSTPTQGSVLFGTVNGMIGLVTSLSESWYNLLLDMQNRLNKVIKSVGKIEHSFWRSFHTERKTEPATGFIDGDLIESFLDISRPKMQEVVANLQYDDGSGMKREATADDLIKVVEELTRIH
UniProt P12004: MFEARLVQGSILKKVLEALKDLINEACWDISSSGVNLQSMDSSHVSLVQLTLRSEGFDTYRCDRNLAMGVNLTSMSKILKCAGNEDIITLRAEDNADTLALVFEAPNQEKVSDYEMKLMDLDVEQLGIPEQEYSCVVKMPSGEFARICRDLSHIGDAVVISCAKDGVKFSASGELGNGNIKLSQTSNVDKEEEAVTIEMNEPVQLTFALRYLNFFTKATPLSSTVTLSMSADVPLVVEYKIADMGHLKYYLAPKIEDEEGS

[2] = target: T2, FLAG-tagged wild-type murine p21 (p21^WT) (murine) (UniProt P39689); assay: as above
T2 sequence: T1 sequence with A149K, A150R, A151R

[3] = target: T2, FLAG-tagged wild-type murine p21 (p21^WT) (murine); assay: co-IP; FLAG-tagged p21 precipitated from transfected 293T cells treated with wild-type or scrambled p21 peptide (25 µM); blot for endogenous PCNA
[4] = target: T3, HA-tagged wild-type murine p21 (p21^WT) (murine) (UniProt P39689); assay: co-IP; HA-tagged p21 precipitated with HA antibodies from lysates of transfected 293T cells at 48 hr; blot for endogenous PCNA
T3 sequence: T1 sequence with A149K, A150R, A151R

| Substance | binding [1] | binding [2] | binding [3] | binding [4] |
| --- | --- | --- | --- | --- |
| DDB1 (from UniProt Q16531 1-1140) | no binding | binds |  |  |
| PCNA (from UniProt P12004 1-261) |  | binds | binds | binds |
